How the values were obtained:
TNFα = test: Cot Monocyte TNFα Cell Based Assay; details: read-out: EC50 TNF, LPS-stimulated human monocytes
Human Cot = Human Cot (Homo sapiens (Human), UniProt P41279); test: High Throughput Cot Biochemical Assay; details: read-out: IC50 HTRF; Cot HTRF (TR-FRET) biochemical assay
Sequence of Human Cot (P41279 30-397): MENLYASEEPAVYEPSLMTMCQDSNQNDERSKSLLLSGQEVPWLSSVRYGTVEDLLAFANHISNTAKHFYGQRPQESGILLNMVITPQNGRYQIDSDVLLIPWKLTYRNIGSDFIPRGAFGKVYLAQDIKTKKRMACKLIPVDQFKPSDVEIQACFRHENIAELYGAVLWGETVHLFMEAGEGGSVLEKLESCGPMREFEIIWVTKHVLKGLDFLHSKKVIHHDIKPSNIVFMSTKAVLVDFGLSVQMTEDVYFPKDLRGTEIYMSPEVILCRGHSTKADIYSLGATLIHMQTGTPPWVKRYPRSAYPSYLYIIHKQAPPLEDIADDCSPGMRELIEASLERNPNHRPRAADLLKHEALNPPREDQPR

EC50 (TNFα)	IC50 (Human Cot)	SMILES
0.445 µM	0.01 µM	N#Cc1cnc2c(Cl)cc(N[C@@H](c3ccc(F)nc3)c3cn(C4CC4)nn3)cc2c1NC1C2CC3CC(C2)CC1C3 (stereo partly drawn) [Example 95, 4-(((1S,3S,5S,7S)-adamantan-2-yl)amino)-8-chloro-6-(((S)-(1-cyclopropyl-1H-1,2,3-triazol-4-yl)(6-fluoropyridin-3-yl)methyl-d)amino)quinoline-3-carbonitrile]
0.203 µM	0.001 µM	CC(C)(C)CNc1c(C#N)cnc2c(C#N)cc(N[C@H](c3cn(C4CC4)nn3)c3cccc4c3CNC4)cc12 [Example 79, (S)-6-(((1-cyclopropyl-1H-1,2,3-triazol-4-yl)(isoindolin-4-yl)methyl)amino)-4-(neopentylamino)quinoline-3,8-dicarbonitrile]
0.326 µM	0.006 µM	N#Cc1cnc2c(Cl)cc(N[C@@H](c3c[nH]nn3)c3cc4c(s3)CN(C3COC3)CC4)cc2c1Nc1ccc(F)c(Cl)c1 [Example 269, (S)-8-chloro-4-((3-chloro-4-fluorophenyl)amino)-6-(((6-(oxetan-3-yl)-4,5,6,7-tetrahydrothieno[2,3-c]pyridin-yl)(1H-1,2,3-triazol-4-yl)methyl)amino)quinoline-3-carbonitrile]
0.069 µM	0.001 µM	CC[C@@H](Nc1c(C#N)cnc2c(C#N)cc(N[C@H](c3cn(C4CC4)nn3)c3cccc4c3CNC4)cc12)c1ccccc1 [Example 428, 6-(((S)-(1-cyclopropyl-1H-1,2,3-triazol-4-yl)(isoindolin-4-yl)methyl)amino)-4-(((R)-1-phenylpropyl)amino)quinoline-3,8-dicarbonitrile]
0.291 µM	0.01 µM	CC(C)n1cc([C@@H](Nc2cc(Cl)c3ncc(C#N)c(Nc4ccc(F)c(Cl)c4)c3c2)c2cccn3cncc23)nn1 [Example 136, (S)-8-chloro-4-((3-chloro-4-fluorophenyl)amino)-6-((imidazo[1,S-a]pyridin-8-yl(1-isopropyl-1H-1,2,3-triazol-4-yl)methyl)amino)quinoline-3-carbonitrile]
–	0.001 µM	Cc1nc(F)ccc1C(Nc1cc(Cl)c2ncc(C#N)c(N[C@H](CCC#N)c3ccccc3)c2c1)c1cn(C2CC2)nn1 (stereo partly drawn) [Example 72, 8-chloro-4-(((R)-3-cyano-1-phenyl-propyl)amino)-6-(((1-cyclopropyl-1H-1,2,3-triazol-4-yl)(6-fluoro-2-methylpyridin-3-yl)methyl-d)amino)quinoline-3-carbonitrile]
0.238 µM	–	CC[C@@H](Nc1c(C#N)cnc2c(Cl)cc(N[C@@H](c3cccnc3)c3cn([C@H](C)C(F)(F)F)nn3)cc12)c1ccccc1 [Example 190, 8-chloro-4-(((R)-1-phenylpropyl)amino)-6-(((S)-pyridin-3-yl (1-((R)-1,1,1-trifluoropropan-2-yl)-1H-1,2,3-triazol-4-yl)methyl)amino)quinoline-3-carbonitrile]
0.099 µM	0.004 µM	CC(C)(C)CNc1c(C#N)cnc2c(F)cc(N[C@@H](c3ccc(F)nc3)c3cn(C4CC4)nn3)cc12 [Example 119, (S)-6-(((1-cyclopropyl-1H-1,2,3-triazol-4-yl)(6-fluoropyridin-3-yl)methyl-d)amino)-8-lluoro-4-(neopentylamino)quinoline-3-carbonitrile]
0.036 µM	0.002 µM	N#CCC[C@@H](Nc1c(C#N)cnc2c(Cl)cc(NC(c3cn(C4CC4)nn3)c3cccnc3F)cc12)c1ccccc1 (stereo partly drawn) [Example 71, 8-chloro-4-(((R)-3-cyano-1-phenyl-propyl)amino)-6-(((1-cyclopropyl-1H-1,2,3-triazol-4-yl)(2-fluoropyridin-3-yl)methyl-d)amino)quinoline-3-carbonitrile]
0.033 µM	0.002 µM	N#CCC[C@@H](Nc1c(C#N)cnc2c(Cl)cc(NC(c3cn(C4CC4)nn3)c3cccnc3Cl)cc12)c1ccccc1 (stereo partly drawn) [Example 73, 8-chloro-6-(((2-chloropyridin-3-yl)(1-cyclopropyl-1H-1,2,3-triazol-4-yl)methyl-d)amino)-4-(((R)-3-cyano-1-phenylpropyl)amino)quinoline-3-carbonitrile]
